Measured values: PubChem BioAssay AID889 (National Center for Advancing Translational Sciences (NCATS), 2007)
Screen size: about 75,000 compounds; about 15 (0.02%) were called active. Inconclusive means that the source gave no clear call. Such entries were picked first, then a sample of the others. Calls follow the shape of the dose curve; as a rule, active = well fitted inhibition curve with a large enough effect in the main read-out, with a control signal flat (not every such curve was filed as active); inconclusive = small, poorly fitted or top-dose-only effect, or a change in a side signal; inactive = flat fitted curve, though single readings scatter. A potency beside an inconclusive call is a rough fit, not a confirmed value. “Side channel” marks fits to a control or component signal instead of the main read-out.

These molecules were tested against Caspase-7 (Homo sapiens) (UniProt P55210) (assay: qHTS Assay for Allosteric/Competitive Inhibitors of Caspase-7). Settings: recombinant caspase-7, Ac-DEVD-AFC fluorescence rate; activity change, negative = inhibition: at 57.5 µM (top of the series) unless noted.
Chain of UniProt P55210 (P55210 whole entry, looked up): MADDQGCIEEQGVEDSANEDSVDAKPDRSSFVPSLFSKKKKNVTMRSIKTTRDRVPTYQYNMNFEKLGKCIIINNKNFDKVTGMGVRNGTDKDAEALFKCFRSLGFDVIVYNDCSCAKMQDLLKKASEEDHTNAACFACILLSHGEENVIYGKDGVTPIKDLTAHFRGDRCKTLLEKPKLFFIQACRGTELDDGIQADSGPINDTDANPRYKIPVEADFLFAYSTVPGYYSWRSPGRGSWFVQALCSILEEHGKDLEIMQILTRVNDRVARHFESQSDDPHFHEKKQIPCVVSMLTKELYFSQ
Source text: NIH Molecular Libraries Screening Centers Network [MLSCN]
NIH Chemical Genomics Center [NCGC]
PI Name: Dr. James Wells,
Dr. Enrique Perez-Paya, Dr.Janice Williams, Dr. Dennis Wolan, a person
The caspases (Cysteine Aspartyl Protease) comprise a related family of 14 dimeric proteases that are critical mediators of apoptosis (programmed cell death) and inflammation. The caspases represent an important class of drug targets for stroke, ischemia, cancer and inflammatory diseases. […] One goal of this project was to identify compounds that act as allosteric inhibitors via stabilizing the procaspase form of the enzyme. Previous work in Well's laboratory has shown that such allosteric inhibitors can be identified and these act by binding at the dimer interface of enzyme (Hardy, Lam et al., 2004).
The biochemical assay was configured using purified caspase 7 at a high enzyme concentration to promote formation of the homodimers and thus facilitate the identification of allosteric inhibitors. The overall goal was to identify reversible inhibitors with better drug-like properties than the currently available set of aspartyl-containing peptidomimetics that covalently bind the active site. Caspase 7 was assayed using the profluorescent substrate Ac-DEVD-AFC. After initiation of the assay with substrate the plates were rapidly read using an automated robotic system (Kalypsys, Inc.) to maintain consistent timing. A kinetic mode of detection was used where the initial rate was collected (estimated final product formation was ~10%). Compounds were screened as a concentration-titration series that ranged from 57 uM to 0.7 nM. Below is the protocol used for caspase 7.
NCGC Assay Protocol Summary:
Caspase 7 was prepared in buffer (50 mM HEPES pH 7.5, 50 mM KCl, 200 mM NaCl, 10 mM DTT, 0.1% CHAPS) at a concentration of 66.6 nM and 3 uL was dispensed to all wells using black solid Kalypsys 1536-well plates. 20 nL of DMSO containing compounds was added using a pin-tool (Kalypsys Inc.) to columns 5-48. Then 20 nL of DMSO solution from a control plate was added to columns 1-4. Controls were: Column 1, 16 point titration with each concentration in duplicate (1:1 dilutions in DMSO; final starting concentration was 57 uM) of the caspase 7 inhibitor Ac-DEVD-CHO (Alexis Biochemicals); Column 2, a 16 point titration with each concentration in duplicate of the free AFC fluorophore prepared in DMSO (Alexis Biochemicals), final starting was 40 uM; Column 3 neutral (DMSO only) control; Column 4: DMSO alone, to serve as a negative control (no substrate was added). Then 1 uL of 20 uM the substrate Ac-DEVD-AFC (Alexis Biochemicals) prepared in the same buffer was dispensed to all wells except columns 2 and 4 and the plates were immediately transferred (< 1 min) to the Viewlux. The plates were then exposed using 405 nm excitation/520 nm emission filters for 4 sec and read at 20 sec intervals for 3 min. Final enzyme concentration was 50 nM and the final substrate concentration was 5 uM.
Concentration-response curves were fitted to the data calculated from slope of the linear regression of fluorescent intensity versus time (the rate). The concentration-effect curves were then classified based on curve quality (r2), response magnitude and degree of measured activity. […] Inconclusive compounds had appreciable concentration-dependent effects on both the measured rate and the interpolated basal fluorescence intensity at the start of the reaction but where the basal fluorescent intensity was marginal (e.g. < 10-fold). Inconclusive compounds also encompass highly fluorescent compounds (>100-fold increases in fluorescent intensities values relative to controls) where artificial concentration-dependent decreases in the rate occurred at high compound concentrations due to fluorescent interferences.
Keywords: Caspase 7, proteases, profluorescent, MLSMR, MLSCN, NIH Roadmap, qHTS, NCGC
For activity change, negative = inhibition in this document: % of control where 0% means no effect.
Potency is read from the fitted curve at half-maximal effect; tags tell the direction and shape of the fitted curve or compound fluorescence and quenching.

Potency, inconclusive:
Cc1ccc(-c2cc(-c3ccccc3Cl)c(C#N)c(N)n2)o1 31.6 µM [fluorescent, single point]
Cc1ccc(-c2cc(-c3ccccc3)c(C#N)c(N)n2)o1 25.1 µM [inhibitor, single point]
Cc1nc2cnc(N3CCOCC3)nc2n(CCC#N)c1=O 20 µM [inhibitor, single point]
Cc1cc(-n2c(=O)c(C#N)cc3c(=O)n4ccccc4nc32)no1 10 µM [fluorescent, side channel, partial curve]
CCOC(=O)c1cc(-c2ccc(/C=N\n3cnnc3)o2)ccc1Cl 39.8 µM [inhibitor, single point]
CCc1c(C)sc(NC(=O)c2cccs2)c1C(=O)OC(C)C 31.6 µM [inhibitor, single point]
CN1CCN(c2ncc3nc(-c4cn(C)c5ccccc45)c(=O)n(C)c3n2)CC1 12.6 µM [inhibitor, partial curve]
CCN1CCN(Cc2c(O)c(Cl)cc3c(C)cc(=O)oc23)CC1 12.6 µM [fluorescent, side channel, partial curve]
CCc1cc(=O)oc2c(C)c(O)c(CN(C)C)cc12 10 µM [fluorescent, side channel, partial curve]
Cn1c(NC(=O)c2ccccc2Br)cc(=O)n(C)c1=O 31.6 µM [fluorescent, partial curve]
O=c1c(-c2ccccc2)nc2cnc(N3CCNCC3)nc2n1Cc1cccs1 15.8 µM [fluorescent, partial curve]
COCCn1c(=O)c(CCc2ccccc2)nc2cnc(N3CCOCC3)nc21 25.1 µM [inhibitor, single point]
COCCn1c(=O)c(-c2cccc(C#N)c2)nc2cnc(Nc3ccccc3)nc21 7.94 µM [fluorescent, full curve]
CCC(C)(C)n1nnnc1CN1CCN(c2nc3cc(OC)ccc3cc2C#N)CC1 25.1 µM [inhibitor, single point]
CN1CCN(c2ncc3nc(-c4ccc(Cl)cc4)c(=O)n(C)c3n2)CC1 6.31 µM [fluorescent, side channel, partial curve]
CCN(CC)c1ccc(/C=N/n2nnnc2N)c(O)c1 31.6 µM [fluorescent, single point]
N#CCCn1c(=O)c(-c2cccs2)nc2cnc(OCc3ccccc3)nc21 2.51 µM [fluorescent, side channel, full curve]
CC1=C(C(=O)Nc2cc(C)ccn2)C(c2ccc(C)cc2)C2=C(CCCC2=O)N1 (configuration not stated) 31.6 µM [inhibitor, single point]
CCN(CC)c1nc2ccccc2nc1C(C#N)C(=O)NCCc1ccccc1 (configuration not stated) 10 µM [inhibitor, partial curve]
C[C@@H]1c2ccccc2CN1CC1=NCCN1 31.6 µM [inhibitor, partial curve]
CN1CCN(Cc2c(O)ccc3c(=O)c(Oc4ccccc4Cl)c(C(F)(F)F)oc23)CC1 25.1 µM [inhibitor, single point]
Nc1ccc2cc3ccccc3cc2c1 31.6 µM [fluorescent, partial curve]
N=c1c(C(=O)NCc2ccco2)cc2c(=O)n3ccccc3nc2n1Cc1ccccc1 3.16 µM [fluorescent, full curve]
N#Cc1c(NCCCO)nc(NCc2ccccc2)c2c1CCN(Cc1ccccc1)C2 0.794 µM [fluorescent, side channel, full curve]
Cc1cccn2c(=O)c3cc(C#N)c(=NC(=O)c4ccccc4)n(Cc4ccco4)c3nc12 3.98 µM [fluorescent, side channel, partial curve]
COCCn1c(=O)c(-c2cc(F)cc(F)c2)nc2cnc(N(C)C)nc21 3.16 µM [fluorescent, side channel, partial curve]
O=C(CN1C(=O)c2cccc3cccc1c23)N1CCN(c2ccc(F)cc2)CC1 31.6 µM [fluorescent, side channel, single point]
CCNc1ncc2nc(-c3ccc(Cl)cc3)c(=O)n(C[C@H]3CCCO3)c2n1 1.26 µM [fluorescent, side channel, full curve]
O=C(C1CCN(c2ccc(N3CCOCC3)nn2)CC1)N1CCc2ccccc2C1 25.1 µM [inhibitor, partial curve]

Activity change, negative = inhibition, inactive:
Cc1ccc(N2C(=O)C3C(C2=O)C2C=CC3C23CC3)cc1 (configuration not stated) 0.126%
CC(C)CCNC(=O)C1CCN(S(=O)(=O)c2ccc3c(c2)CCC(=O)N3)CC1 -3.14%
O=C1OC(=O)c2ccccc21 0.452%
COc1ccc([C@@H]2[C@H]3CN(C(C)=O)CC=C3C(C#N)=C(N)C2(C#N)C#N)c2ccccc12 -13.9%
CC(C)CCn1c(N)c(S(=O)(=O)c2cccs2)c2nc3ccccc3nc21 -26.9%
COCCn1c(SCC(=O)c2[nH]c(C)c(C(C)=O)c2C)nc2ccccc21 -2.72%
COc1cc2c(cc1NC(=O)COC(=O)Cn1cnc3ccccc31)oc1ccccc12 -3.66%
Cc1csc(NC(=O)C2C3C=CC(O3)C2C(=O)O)n1 (configuration not stated) -1.13%
Cc1cc(C)nc(NC(=NCCc2c[nH]c3ccccc23)NC(=O)c2ccco2)n1 -1.03%
CC(C)(C)n1nnnc1C(c1ccccc1)N1CCc2ccccc2C1 (configuration not stated) 1.52%
COCc1nnc(NC(=O)c2cccs2)s1 0.365%
C[C@@]12CCC(=O)C=C1CC[C@H]1[C@@H]2[C@@H](O)C[C@]2(C)[C@@H]1CC[C@@]2(O)C(=O)COC(=O)C1CCCC1 -4.38% [at 11.5 µM]
CC1CCc2cc(F)ccc2N1C(=O)c1ccc2c(c1)OCO2 (configuration not stated) -0.276%
